# In PubChem BioAssay AID1240 (Sanford-Burnham Center for Chemical Genomics, 2008):
# The campaign covered roughly 50,000 compounds. About 800 (1.6%) showed an effect of 50% or more. Some of the results follow.
# Target: Bcl-2-like protein 10 (Homo sapiens) (UniProt Q9HD36)
# Assay: TR3 peptide-Bcl-B binding displacers, biochemical primary FP assay, phenotype converters (AID 1240);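 also: 0% = Bcl-B with tracer peptide and DMSO and 100% = tracer peptide lacking Bcl-B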
# Conditions: GST-Bcl-B / FITC-TR3 peptide fluorescence polarization; stronger effect = higher value; compound at 3.75 mg/L
# Chain of UniProt Q9HD36 (Q9HD36 whole entry, looked up): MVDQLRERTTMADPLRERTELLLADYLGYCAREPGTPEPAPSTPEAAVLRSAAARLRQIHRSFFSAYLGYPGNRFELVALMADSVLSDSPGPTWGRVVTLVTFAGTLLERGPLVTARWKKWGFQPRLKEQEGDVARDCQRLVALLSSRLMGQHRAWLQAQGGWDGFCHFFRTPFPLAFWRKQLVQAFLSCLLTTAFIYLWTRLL
row,Compound,displacement [%]
1,COCCOC(=O)C1=C(C)NC(=O)CC1c1ccccc1Br (stereo unspecified),2.1
2,Cc1c(NC(=O)CSCC(=O)Nc2ccc3ccccc3c2)c(=O)n(-c2ccccc2)n1C,8
3,CCCCOc1ccc(NC(=O)c2cc3cc(Br)ccc3oc2=O)cc1,10.3
4,COc1ccccc1OCC(=O)Nc1sc2c(c1C(N)=O)CCC(C)C2 (stereo unspecified),2.6
5,c1ccc(-c2cn(-c3ccccc3)nc2-c2ccccc2)cc1,14.1
6,COc1ccc(OCC(=O)Nc2ccc(OC)c(OC)c2)cc1,-4.2
7,COCCOC(=O)c1c(C)oc2ccc(OS(C)(=O)=O)cc12,12.2
8,O=c1[nH]c2ccc(Cl)cc2c(-c2ccccc2)c1N1CCOCC1,-27.7
9,Cc1[nH]c2c(Cl)cccc2c(=O)c1CN(C)Cc1ccccc1,8.7
10,CCCC(C(=O)O)N1C(=O)/C(=C\c2ccc(-c3ccc([N+](=O)[O-])cc3)o2)SC1=S (stereo unspecified),0.3
11,CCOC(=O)c1[nH]c(C)c(C(=O)C(C)CC)c1C (stereo unspecified),-24.4
12,CCSc1nnc2c(n1)OC(c1ccc(-c3ccc(Cl)cc3)o1)Nc1ccccc1-2 (stereo unspecified),15.7
13,CC(C)CNC(=O)c1cccc(NC(=O)CSCc2ccccc2)c1,-18.1
14,CCC(=O)OCCn1c(=O)c2ccccc2c2ccccc2c1=O,9
15,Cc1ccc(OCC(O)Cn2cnc3cc(C)c(C)cc32)cc1 (stereo unspecified),-13.4
16,Cc1nnc(SC(=O)Cn2c3ccccc3c3ccccc32)s1,7.3
17,COc1ccc(C2/C(=C(\O)c3ccc(F)cc3)C(=O)C(=O)N2CCCCCC(=O)O)cc1 (stereo unspecified),-10.6
18,O=C(Nc1ccc(S(=O)(=O)N2CCOCC2)cc1)c1ccc(Br)s1,-3.3
19,Cc1[nH]n(-c2ccc([N+](=O)[O-])cc2)c(=O)c1/C=N/N1CCOCC1,-4.9
20,CCCOc1ccccc1N/C(=N/S(=O)(=O)c1ccc(C)cc1)Nc1nc(C)cc(C)n1,12.1
21,Cc1cc(/C=C(/C(=O)c2ccccc2)c2nc3ccccc3[nH]2)c(C)n1-c1ccccc1,0.7
22,CCOc1ccccc1NC(=O)C(=O)NCc1ccccn1,6.9
23,CCOc1ccc(-n2c(-c3ccccc3)n[nH]c2=S)cc1,-1.5

row,Compound,displacement [%]
1,COc1ccccc1C(=O)NCC(=O)O,7.3
2,CCOc1cc(/C=C2/SC(=S)N(CC(=O)O)C2=O)ccc1OCc1ccc(Cl)cc1,12.7
3,COc1ccc(S(=O)(=O)N2CCC(C(=O)O)CC2)cc1C(=O)O,10.3
4,CCOC(=O)C(CCOc1c(C)cc(C)cc1Cl)C(=O)OCC,-2.9
5,Cc1nnc(N/N=C/c2ccc(O)cc2)[nH]c1=O,-1.1
6,COc1ccc(C(C)=O)cc1N1C(=O)C2C3C=CC(C3=C(C)C)C2C1=O (stereo unspecified),-4.6
7,Cc1cc(OCc2nc(-c3ccc(Cl)cc3Cl)no2)ccc1Br,-4.5
8,COc1ccc(C2C(C#N)=C(N)Oc3c2c(C)nn3-c2ccccc2)cc1OC (stereo unspecified),-9.5
9,COc1cc(/C=C2/SC(=S)N(C)C2=O)ccc1OCCOc1ccc([N+](=O)[O-])cc1,74.5
10,C=CCNC(=O)c1cccc(OCc2ccccc2)c1,11.6
11,Cc1cccc(C)c1NC(=O)C12CC3CC(CC(C3)C1)C2,-2.1
12,COc1ccc(CC(=O)Nc2oc(-c3ccccc3)c(-c3ccccc3)c2C#N)cc1,-4
13,Cc1ccc(OCCNC(=O)c2ccc(Br)cc2)cc1,16.1
14,Cc1cccc(C)c1NC(=O)CN(c1cccc([N+](=O)[O-])c1)S(=O)(=O)c1ccccc1,5
15,COc1ccc(/C=C2/SC(N3CCCCC3)=NC2=O)cc1,8.4
16,CC(=O)NC1=C(C(C)=O)C2C(C1)C2(C)C (stereo unspecified),16.4
17,C/C(=C\C(=O)c1ccc(Br)cc1)Nc1cccc(O)c1,7.4
18,O=C(c1ccc(Cl)cc1)N1N=C(c2cccc([N+](=O)[O-])c2)CC1(O)C(F)(F)F (stereo unspecified),10
19,CCN(CC)C(=O)c1sc(NC(=O)COc2ccc(Cl)cc2)c(C(=O)OC(C)C)c1C,-4.5
20,CCOC(=O)c1c(N)c(C#N)c(C)n1-c1ccc(Br)cc1,-11.6
21,Cc1ccc(-c2cc3nc(C)c(C)c(C(C)(C)C)n3n2)cc1,-4
22,COc1cc(C(=O)N2c3ccc(C)cc3-c3c(ssc3=S)C2(C)C)cc(OC)c1OC,-11
23,CCCCc1ccc(/C=N/Nc2ccc([N+](=O)[O-])cc2)s1,-17.2

row,Compound,displacement [%]
1,Cc1ccc(C)c(NC(=O)c2cccc(F)c2)c1,2.6
2,CN(C)C(=O)NC(NC(=O)N(C)C)C(=O)c1ccccc1,9.4
3,COc1ccc(Cl)cc1C(=O)N1CCN(c2ccccc2)CC1,6.6
4,Cc1cccc(-n2c(C)cc(/C=C3/SC(=S)NC3=O)c2C)c1,-14.4
5,O=C(c1cc(F)c(F)cc1Cl)N1CCN(c2ccc([N+](=O)[O-])c3cccnc23)CC1,5.9
6,O=C(Nc1cccc(C(F)(F)F)c1)C1CC(=O)N(c2ccccc2)C1 (stereo unspecified),6.1
7,Cc1ccccc1NC(=O)CSCc1ccccc1,7.6
8,C=CCc1cccc(/C=N/n2c(C)nnc2C)c1O,-12.1
9,COC(=O)c1ccc(NC(=S)NC(=O)c2ccc(F)cc2)cc1,8
10,O=[N+]([O-])c1ccc(-c2ccc(C(=S)N3CCOCC3)o2)cc1,7.7
11,CC(NC(=O)CCN1C(=O)c2ccccc2C1=O)c1ccccc1 (stereo unspecified),0.9
12,CC(C)CCNC(=O)Cc1ccccc1[N+](=O)[O-],5.5
13,O=S(=O)(Nc1nc2ccccc2nc1Nc1ccccc1)c1ccccc1,16.9
14,CCN1C(=O)/C(=C/c2ccc(I)cc2)SC1=S,9.5
15,O=C(Nc1cccc2ccccc12)c1cccc(I)c1,10.2
16,O=C(N/C(=C/c1ccco1)C(=O)N1CCCCCC1)c1cccs1,4.9
17,O=C(O)c1ccccc1-c1ccccc1C(=O)Nc1nc(-c2ccccc2)cs1,24.8
18,O=C(N/N=C/c1cc(Br)ccc1OCc1ccccc1)C(O)(c1ccccc1)c1ccccc1,-5.9
19,O=C(NC(=S)Nc1cccc2ccccc12)c1cc2ccccc2oc1=O,-11.1
20,O/N=C/c1cn(-c2ccccc2)nc1-c1ccccc1,10
21,COc1cc(NC(=O)c2cc([N+](=O)[O-])ccc2N2CCCCC2)c2ncccc2c1,13.5
22,CCOC(=O)c1c(N)c(C#N)c(C)n1-c1ccc(Cl)cc1,-3.5
23,CCOC(=O)c1c(C)oc2c(CN(C)C)c(Br)c(OC)c(O)c12,-8.3

row,Compound,displacement [%]
1,O=C(N/N=C/C(Br)=C/c1ccccc1)C(O)c1ccccc1 (stereo unspecified),6.3
2,Cc1ccc(S(=O)(=O)N2CCOCC2)cc1C,2.3
3,Cc1ccccc1NC(=O)CN(c1ccc(Br)cc1)S(C)(=O)=O,1.7
4,O=C1CCCCC1C1(O)C(=O)Nc2ccc(Br)cc21 (stereo unspecified),-13.3
5,COc1ccc(/C=N/n2c(C)nnc2C)c(OC)c1OC,12.3
6,Cc1ccc2c(Cl)c(C(=O)NCc3ccc(Cl)cc3)sc2c1,4
7,O=C(CCC(NC(=O)c1ccccc1)C(=O)NCCCO)OCc1ccccc1 (stereo unspecified),10.9
8,Clc1ccc(-c2nc(NCCN3CCOCC3)c3ccccc3n2)cc1,-1.9
9,Cc1cccc(-n2c(C)cc(/C=C3/NC(=O)NC3=O)c2C)c1,20.6
10,Cc1cc(C)c(NC(=O)COc2cc(C)c(Cl)c(C)c2)c(C)c1,8.5
11,NC1=NC2(CCCCC2)N=C(Nc2ccc(F)cc2F)N1,-7.4
12,C=CCC1(NCc2ccco2)CCN(CC)CC1,10.9
13,CCOC(=O)COc1ccc(/C=C2\C(=O)NC(=O)N(c3cc(C)cc(C)c3)C2=O)cc1OC,-5.9
14,CC(C)(C)C(=O)Nc1cccc(C(=O)Nc2ccc(O)cc2)c1,-6.9
15,COc1cc(O)c(NC(C)=O)c2nonc12,5.1
16,C=CCN1C(=O)/C(=c2\sc3n(c2=O)C(c2ccc(OC)c(OC)c2)C(C(=O)OC)=C(C)N=3)c2ccccc21 (stereo unspecified),7.1
17,NC(=O)c1ccc(NC(=O)Cc2ccc(Cl)cc2)cc1,-1
18,COc1ccccc1C(=O)Nc1cccnc1,4.2
19,CCOc1cc(/C=c2\sc3nc4ccccc4n3c2=O)cc(Cl)c1OCCOc1ccccc1C,12.4
20,CCOc1ccccc1NC(=O)c1cc([N+](=O)[O-])ccc1N1CCN(Cc2ccccc2)CC1,11.8
21,CCO/C(C)=C1\C(=O)Nc2ccccc21,11
22,O=C(Nc1ccccc1S)c1cc2c(ccc3ccccc32)oc1=O,-4.6
23,COc1ccc(/C=C/C(=O)Nc2ccc(C)c([N+](=O)[O-])c2)cc1OC,-7

row,Compound,displacement [%]
1,C/C(=N/NC(=O)c1ccccc1C)c1ccc(NC(=O)C(F)(F)F)cc1,-6.1
2,Cc1ccc(-c2nc3cc(NC(=S)NC(=O)c4ccco4)ccc3o2)cc1,10.2
3,CCOC(=O)N(CCCC(=O)OC)CP(=O)(OCC)OCC,15
4,CCOC(=O)C1=C(C)N=c2s/c(=C\c3ccc(N(C)C)cc3)c(=O)n2C1c1cccc(OC)c1 (stereo unspecified),-53.2
5,Cc1ccccc1NC(=O)c1ccc(NC(=O)c2ccco2)cc1,0.3
6,Cc1cccc(OCC(=O)O/N=C(\N)Cc2cccs2)c1,-1
7,CN1CCN(CCCNc2c([N+](=O)[O-])c(=O)sc3ccccc23)CC1,-14.5
8,CC(C)(C)OC(=O)c1ccc([N+](=O)[O-])cc1,13.8
9,O=c1c2c3c(sc2ncn1/N=C/c1cccs1)CCCC3,2.9
10,C=CCc1cccc(/C=N/c2nc3ccccc3n2CC)c1O,5.1
11,Cc1cc(=O)oc2cc(OC(=O)c3ccc([N+](=O)[O-])cc3Cl)ccc12,7.3
12,CN(CCO)CCOCCOc1ccc(C(C)(C)C)cc1,15.9
13,CC(C)(C)NC(=O)c1cc2nc(-c3ccccc3)cc(C(F)(F)F)n2n1,13
14,C/C=C/C=C(/NC(=O)c1ccccc1)C(=O)OC,10.5
15,COc1ccc(Br)cc1/C=C/C(=O)Nc1cccc(C(F)(F)F)c1,1.6
16,NC(=O)c1cccc2c1-c1ccccc1C2,4.6
17,COCc1cc(CN2CCC(C)CC2)c(O)c2ncccc12,12.2
18,CCOC(=O)c1cccc(NC(=O)c2c(-c3ccccc3Cl)noc2C)c1,2.5
19,O=C(Nc1ccccc1)Nc1nnc(SCc2ccc(F)cc2)s1,13.5
